The campaign covered roughly 310,000 compounds. About 14,000 (4.5%) showed an effect of 50% or more. Effects have a minus sign here. The list shows a part of the results.
Biological target: human ether-à-go-go-related gene (hERG) potassium channel (human, UniProt Q12809)
Test: primary screen, population patch clamp on CHO cells stably expressing hERG
Protocol: Briefly, Chinese hamster ovary (CHO) cells stably expressing the hERG channel were dislodged from tissue culture flasks and dispensed into PPC plates. […] During the recording, background leak currents were estimated by a 100 ms step to -80 mV from an initial holding potential of -70 mV and subtracted from the subsequent current measurement. The campaign was conducted in two phases using slight differences in recording protocol. In the first phase, the initial voltage pulse used a 100 ms step to -30 mV from a holding potential of -70 mV, a 2 s conditioning step to +25 mV, and a 2 s test step to -30 mV. During the second phase of the screen, the potential during the conditioning step was raised to +45 mV. In both phases of the campaign, a secondary voltage pulse was applied using the same parameters as the second phase initial pulse. The initial and secondary pulses were applied in the absence of compound, and upon application of 1 μM and 10 μM test concentrations. […]
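Further: peak tail current of the secondary pulse compared with the same well before compound.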

Sequence of human ether-à-go-go-related gene (hERG) potassium channel (Q12809 whole entry, looked up): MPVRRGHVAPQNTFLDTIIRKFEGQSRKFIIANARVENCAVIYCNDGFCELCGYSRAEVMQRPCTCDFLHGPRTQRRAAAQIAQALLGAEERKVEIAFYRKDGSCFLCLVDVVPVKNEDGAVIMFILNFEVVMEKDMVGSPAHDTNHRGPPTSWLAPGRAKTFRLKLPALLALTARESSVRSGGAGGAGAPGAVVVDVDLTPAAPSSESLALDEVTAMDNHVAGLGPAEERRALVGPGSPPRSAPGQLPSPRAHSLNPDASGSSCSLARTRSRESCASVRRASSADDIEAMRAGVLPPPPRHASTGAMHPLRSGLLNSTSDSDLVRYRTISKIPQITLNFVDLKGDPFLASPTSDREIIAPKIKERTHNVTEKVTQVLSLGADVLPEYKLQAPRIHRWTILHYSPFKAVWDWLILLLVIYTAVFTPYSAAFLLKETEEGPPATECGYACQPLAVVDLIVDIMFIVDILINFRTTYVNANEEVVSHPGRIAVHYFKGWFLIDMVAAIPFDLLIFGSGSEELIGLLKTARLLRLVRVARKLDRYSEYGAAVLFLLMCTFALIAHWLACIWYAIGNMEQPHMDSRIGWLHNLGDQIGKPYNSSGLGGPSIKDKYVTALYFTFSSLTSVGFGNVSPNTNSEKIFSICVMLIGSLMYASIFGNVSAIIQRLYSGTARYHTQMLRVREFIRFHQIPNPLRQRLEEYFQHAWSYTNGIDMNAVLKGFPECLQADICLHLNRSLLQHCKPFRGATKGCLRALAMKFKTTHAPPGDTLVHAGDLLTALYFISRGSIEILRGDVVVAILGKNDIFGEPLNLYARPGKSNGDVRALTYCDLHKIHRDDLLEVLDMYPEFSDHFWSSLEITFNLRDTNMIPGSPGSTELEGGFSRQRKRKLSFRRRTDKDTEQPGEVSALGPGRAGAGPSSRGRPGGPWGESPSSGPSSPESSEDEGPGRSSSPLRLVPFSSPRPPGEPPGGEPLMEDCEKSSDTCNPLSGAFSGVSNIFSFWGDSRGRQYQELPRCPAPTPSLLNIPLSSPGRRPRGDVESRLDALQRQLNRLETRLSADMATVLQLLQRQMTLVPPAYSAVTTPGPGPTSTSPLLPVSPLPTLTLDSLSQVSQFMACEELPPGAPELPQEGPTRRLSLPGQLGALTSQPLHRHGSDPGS

| SMILES | hERG current change (%, negative = inhibition) at 10uM [%] |
| --- | --- |
| O=C(Nc1cccnc1)c1ccccc1NS(=O)(=O)c1ccc(F)cc1 | -11.5 |
| Cc1cc(C)n(-c2cc(N3CCOCC3)nc(-c3ccccc3)n2)n1 | 5.72 |
| O=C(NCCCN=C1NS(=O)(=O)c2ccccc21)c1ccc(S(=O)(=O)N2CCCCC2)cc1 | -4.67 |
| O=C(Nc1ccccc1F)Oc1cccc(OC(=O)Nc2ccccc2F)c1 | 17.5 |
| Cc1ccc(C)c(-n2cc(CN3CCN(C(=O)c4ncn[nH]4)CC3)c(-c3ccccc3)n2)c1 | -30.7 |
| Cc1n[nH]c(C)c1CCCCOc1ccccc1[N+](=O)[O-].O=C(O)C(=O)O | 11.9 |
| CCCCn1c(NC(=O)C2CCCCC2)nc2ccccc21 | 4.63 |
| Cc1ccc(C(=O)OCc2cn3ccccc3n2)cc1 | -12.7 |
| Cc1ccoc1C(=O)Nc1cccc2ccccc12 | 10.5 |
| CN(C)C(=O)COC(=O)c1cccnc1Nc1ccccc1F | 13.5 |
| COc1ccccc1N(CC(=O)N1CCC(C(N)=O)CC1)S(=O)(=O)c1ccccc1 | 12.1 |
| CCCCNc1cc(=O)n(C)c(=O)[nH]1 | 7.25 |
| Cc1ccc(N2CC(=O)N(CC(=O)O)C2=O)cc1 | 25.2 |
| CC(C)N=C1SC(CC(=O)Nc2ccccc2)C(=O)N1C(C)C (centres unmarked) | -37.6 |
| CCOc1ccccc1NC(=O)CCS(=O)(=O)c1ccc(OC)cc1 | -0.411 |
| COc1ccc(C(=O)NCc2nnc(SCC(=O)Nc3cccc(C(F)(F)F)c3)o2)cc1OC | 9.11 |
| COc1ccccc1NC(=O)COC(=O)c1ccccc1C(=O)N1CCN(c2ccccc2)CC1 | -42.3 |
| O=C1NC(c2ccccc2)=CC(c2ccccc2O)N1 (centres unmarked) | 5.3 |
| Cc1cc(C)n2nc(SCc3ccccc3C(=O)O)nc2n1 | 19.7 |
| CCOC(=O)c1ccc(CNS(=O)(=O)c2c(C)ccc3nsnc23)o1 | -6.38 |
| CC(C)CN(C(=O)c1cccc([N+](=O)[O-])c1)c1c(N)n(CC(C)C)c(=O)[nH]c1=O | 14.7 |
| C=CCn1c(SCC(=O)NCC2CCCO2)nc2sc(C)c(C)c2c1=O (centres unmarked) | -22.2 |
| COc1ccc(OC)c(C(=O)CSc2nc3ncccc3[nH]2)c1 | -3.98 |

| SMILES | hERG current change (%, negative = inhibition) at 10uM [%] |
| --- | --- |
| C/C(=N\Nc1nnc2c3ccccc3n(C)c2n1)c1ccc(C)o1 | -52.4 |
| Cc1nnc(SCC(=O)c2ccc(C(C)C)cc2)s1 | -0.941 |
| COc1cc(C(=O)Nc2c(C(=O)O)[nH]c3ccc(C)cc23)cc(OC)c1OC | 20.5 |
| Cc1cccc(N2C(=O)CS/C2=N\NC(=O)c2cccnc2)c1C | 7.11 |
| O=C1C=C(NCc2ccc(Cl)cc2)CCC1 | -25.2 |
| C[C@H]1CC[C@@]2(O[C@@H](CCO)C[C@@H](O)[C@@H]2O)O1 | 18.6 |
| Cc1ccc(C)c(C(=O)COC(=O)C(C)N2C(=O)C3C4CCC(C4)C3C2=O)c1 (centres unmarked) | 12 |
| O=C(COc1ncnc2c(Cl)cc(Cl)cc12)Nc1cc([N+](=O)[O-])ccc1Cl | 19.7 |
| CC1(C)CC2(CC(C)(C)N1)OC(=O)N1CCc3ccccc3C12C (centres unmarked) | 8.28 |
| CCCCCN(C(=O)CCC(=O)OCC(=O)N1CCCC(C)C1)c1c(N)n(CCCC)c(=O)[nH]c1=O (centres unmarked) | 10.8 |
| CCCCNC(=O)COC(=O)c1ccc(C)c(NC(=O)c2ccco2)c1 | -7.9 |
| O=C(CCc1nnc(CCC2CCCCC2)o1)NCCn1cccn1 | 17.2 |
| OCC(CO)(CO)NC(=S)Nc1cc(Cl)cc(Cl)c1 | 9.16 |
| COc1cc(/C=N/S(=O)(=O)CCc2ccccc2)cc(OC)c1O | -3.95 |
| COc1ccc(Cl)cc1NC(=O)CN1CCN(S(=O)(=O)c2ccc(F)cc2)CC1 | -43.8 |
| Cc1cc2c(cc1C)C(c1cccc(F)c1)CC(=O)N2 (centres unmarked) | 12 |
| CCOC(=O)C1(CCOc2ccccc2)CCN(Cc2cc(OC)c3c(c2)OCO3)CC1 | -72.1 |
| CNC(=O)c1ccsc1NC(=O)CN1C(=O)CCC1=O | 6.39 |
| O=C(COc1cc2oc(=O)c3c(c2cc1Cl)CCC3)NCCCN1CCOCC1 | 7.01 |
| O=C(COc1cccnc1[N+](=O)[O-])NCc1ccc2c(c1)OCO2 | -26.2 |
| CCCCC(=O)Nc1ccc(NC(=O)c2ccco2)cn1 | 10.1 |
| Cc1nn2c(C)nc3sc4c(c3c2nc1=O)CC(C)(C)OC4 | 11.9 |
| Cc1cccc(/C=N/NC(=O)c2ccc3c(c2)OCCO3)c1O | -0.0887 |

| SMILES | hERG current change (%, negative = inhibition) at 10uM [%] |
| --- | --- |
| Cc1ccccc1C(=O)Nc1c2c(nn1C(C)(C)C)CS(=O)(=O)C2 | 2.99 |
| CCN(CC)/C(Sc1ccccc1)=C(\C(Cl)=C(Cl)Cl)[N+](=O)[O-] | -5.29 |
| CCOc1cccc(/C(O)=C2/C(=O)C(=O)N(CCOC)C2c2ccco2)c1 (centres unmarked) | 4.21 |
| O=C(CSc1nc2ccccc2[nH]1)N1CCCCC1 | -2 |
| O=C(COn1nnc2ccc(Cl)cc21)Nc1ccc(F)cc1 | 14.5 |
| CC(OC(=O)c1oc2ccccc2c1CSC1CCCCC1)C(=O)NC(N)=O (centres unmarked) | 7.78 |
| COc1ccc(NC(=O)CSc2nc3ccccc3nc2N2CCOCC2)c(OC)c1 | -5.88 |
| CCOc1ccccc1OCC(=O)NC1CCCCC1 | -13.7 |
| CSc1ncc2ncn(C3OC(CO)C(O)C3O)c2n1 (centres unmarked) | 10.3 |
| CCOC(=O)C1=C(C)NC(=NC)SC1c1ccccc1 (centres unmarked) | 11.3 |
| CC1=C(C#N)C(=O)N(C2CCS(=O)(=O)C2)C(=O)/C1=C\c1ccc(C)o1 (centres unmarked) | 6.38 |
| C[n+]1ccccc1/C=N/O.[Cl-] | 17.3 |
| O=C1CC(c2ccccc2)n2nc(NC(=O)C3CCCO3)nc2N1 (centres unmarked) | -10 |
| CCCCCC(=O)c1ccc(O)cc1O | 3.48 |
| O=C(Nc1ccc(Cl)c([N+](=O)[O-])c1)c1ccc(NCCCN2CCOCC2)c([N+](=O)[O-])c1 | -10.2 |
| COc1ccc(/C=C/C(=O)NCc2ccc(F)cc2)cc1S(=O)(=O)N1CCOCC1 | -24 |
| CCN(Cc1cc2ccccc2[nH]c1=O)C(=O)C1CCCCC1 | -13.3 |
| O=C(NCC1CC1)C1(C(F)(F)F)CC(CCCO)CCCO1 (centres unmarked) | 20.5 |
| O=C(OCc1cccc(C(F)(F)F)c1)c1cc(S(=O)(=O)N2CCOCC2)ccc1F | -8.25 |
| COc1ccc(N(CC(=O)Nc2ccc(OC)cc2OC)S(=O)(=O)c2ccccc2)cc1 | -1.33 |
| Cc1nn(-c2ccccc2)c(N)c1N=Nc1ccc2ccccc2c1 | 6.88 |
| CCOc1cc2c(cc1/C=C(/C#N)c1ccc(C(=O)O)cc1)OCO2 | 9.73 |
| Cc1c(C)n(C)c2ccc(C(=O)NCCCN(C)C3CCCCC3)cc12 | -44.6 |

| SMILES | hERG current change (%, negative = inhibition) at 10uM [%] |
| --- | --- |
| CC(C)C(=O)Nc1cccc(-c2nc3ccccc3o2)c1 | 2.06 |
| COc1cccc(-c2ccc3nnc(SCC(=O)N4CCCC4)n3n2)c1 | -17.1 |
| CSc1ccc(Cl)c(C(=O)NCCOc2cc(C(C)C)ccc2C)c1 | 19.4 |
| CC(=O)Nc1ccc(S(=O)(=O)NCC2CCC(C(=O)NC(C)c3ccc4c(c3)OCCO4)CC2)cc1 (centres unmarked) | 20 |
| O=C(OCn1nnc2ccccc2c1=O)c1cccnc1 | 1.64 |
| CN(C(=O)COC(=O)c1cc(=O)[nH]c2ccccc12)C1CCCCC1 | -4.95 |
| CCOc1c2ccc(C(=O)NC3CCCc4ccccc43)cc2nn1C (centres unmarked) | -14.1 |
| COc1cc(/C=N/Nc2nncn2/N=C/c2ccc(O)c(OC)c2)ccc1O | -39.7 |
| COc1ccc(N2CCN(C(=O)c3ccc(-n4nc(C)cc4C)cc3)CC2)cc1 | -19.4 |
| CCOC(=O)n1c(SCC(=O)N(CC)CC)nc2ccccc21 | -15.8 |
| COc1cc2c(cc1OC)-c1nnc(C)n1C(C)(C)C2 | 12.1 |
| O=C(NCc1ccccn1)Nc1cccc(NC(=O)NCc2ccccn2)c1 | -26.9 |
| O=C(Nc1c(C(=O)N2CCOCC2)cnn1-c1ccccc1)c1ccccc1 | -1.05 |
| C[n+]1cccc2c(Br)ccc([O-])c21.O | 19.5 |
| CC(C)Cn1c(N)c(C(=O)COC(=O)c2ccc(O)cc2O)c(=O)n(C)c1=O | 8.34 |
| CC(=NCCCn1ccnc1)C1=C(O)c2ccccc2C1=O | -68 |
| CCc1ccc(NC(=O)CSc2nc3cc(C(=O)OC)ccc3c(=O)n2CC2CCCO2)cc1 (centres unmarked) | -3.72 |
| CCCCN(C(=O)c1oc2ccc(OCC)cc2c1C)c1c(N)n(CCCC)c(=O)[nH]c1=O | -2.38 |
| Cc1c(O)nc(SCC(=O)Nc2nccs2)n(-c2ccccc2F)c1=O | 7.42 |
| N/C(=N\NC(=O)c1cccs1)c1cc2cc(Cl)ccc2oc1=O | 12.3 |

From publication PMC4336329 (PLoS ONE, 2015)
